# Laboratory results published in a collection of fitness landscapes (doi:10.1126/science.1257360).
# The list shows a part of the results.
# B1: PhoQ; a variant is named by its letters at X, in order, P23837 (parent)
# chain: MKKLLRLFFPLSLRVRFLLATAAVVLVLSLAYGMVALIGYSVSFDKTTFRLLRGESNLFYTLAKWENNKLHVELPENIDKQSPTMTLIYDENGQLLWAQRDVPWLMKMIQPDWLKSNGFHEIEADVNDTSLLLSGDHSIQQQLQEVREDDDDAEMTHSVAVNVYPATSRMPKLTIVVVDTIPVELKSSYMVWSWFIYVLSANLLLVIPLLWVAAWWSLRPIEALAKEVRELEEHNRELLNPATTRELTSLVRNLNRLLKSERERYDKYRTTLTDLTHSLKTPLXXLQXXLRSLRSEKMSVSDAEPVMLEQISRISQQIGYYLHRASMRGGTLLSRELHPVAPLLDNLTSALNKVYQRKGVNISLDISPEISFVGEQNDFVEVMGNVLDNACKYCLEFVEISARQTDEHLYIVVEDDGPGIPLSKREVIFDRGQRVDTLRPGQGVGLAVAREITEQYEGKIVAGESMLGGARMEVIFGRQHSAPKDE
# Variants of: B1
# Assay: enrichment ratio after two sorts for PhoP signalling (ratio (wild type AVST 3.29)); higher = more functional
# Settings: with PhoP (E. coli)
row,Variant,enrichment ratio
1,ARYP,≤ 0.25
2,DSND,≤ 0.25
3,MYPK,≤ 0.25
4,GEMG,4.41
5,TMDL,≤ 0.25
6,DHCA,≤ 0.25
7,VIFC,≤ 0.25
8,YTTW,≤ 0.25
9,EMES,≤ 0.25
10,QFHA,≤ 0.25
11,QCFF,≤ 0.25
12,GDFY,≤ 0.25
13,TFIE,≤ 0.25
14,SKCV,12.3
15,TFMG,1.47
16,RRPY,≤ 0.25
17,IGML,3.65
18,LLDD,≤ 0.25
19,HLNG,≤ 0.25
20,HWSM,≤ 0.25
21,GADS,≤ 0.25
22,HDWY,≤ 0.25
23,NCIM,≤ 0.25
24,QQFA,≤ 0.25
25,HNSK,≤ 0.25
26,GLAV,0.633

row,Variant,enrichment ratio
1,VNFC,≤ 0.25
2,GRKI,≤ 0.25
3,TPLA,≤ 0.25
4,ACCP,≤ 0.25
5,WQYA,≤ 0.25
6,VFVK,≤ 0.25
7,ERIG,≤ 0.25
8,TTWY,14
9,FSCV,9.84
10,MSCK,≤ 0.25
11,MFKP,≤ 0.25
12,WAPV,≤ 0.25
13,VMPK,≤ 0.25
14,QSAN,≤ 0.25
15,RQNA,≤ 0.25
16,EGCM,≤ 0.25
17,SHRV,≤ 0.25
18,TAMY,17.4
19,RIWH,≤ 0.25
20,HFDF,≤ 0.25
21,VCNN,≤ 0.25
22,KIGP,≤ 0.25
23,FNCS,≤ 0.25
24,HLAH,≤ 0.25
25,QSQI,≤ 0.25
26,FMYY,≤ 0.25

row,Variant,enrichment ratio
1,EIVS,≤ 0.25
2,QNYY,≤ 0.25
3,MNIW,≤ 0.25
4,KMPC,≤ 0.25
5,LYFM,≤ 0.25
6,GPCW,≤ 0.25
7,NSSF,≤ 0.25
8,INNF,≤ 0.25
9,GRWS,≤ 0.25
10,LGNK,≤ 0.25
11,LWKE,≤ 0.25
12,LLWF,≤ 0.25
13,IQSK,≤ 0.25
14,NLQP,≤ 0.25
15,WYWS,≤ 0.25
16,YTVE,≤ 0.25
17,LKAW,≤ 0.25
18,FITF,≤ 0.25
19,SNHR,≤ 0.25
20,APQR,≤ 0.25
21,TEES,≤ 0.25
22,IPKG,≤ 0.25
23,NERM,≤ 0.25
24,QHIY,≤ 0.25
25,DFIC,≤ 0.25
26,LGPP,≤ 0.25

row,Variant,enrichment ratio
1,MPAC,≤ 0.25
2,FLAS,≤ 0.25
3,DYCF,≤ 0.25
4,MTSN,≤ 0.25
5,FRTA,≤ 0.25
6,TCLK,13.1
7,GFVD,≤ 0.25
8,SEWR,≤ 0.25
9,LMFF,≤ 0.25
10,QDYP,≤ 0.25
11,DVAM,≤ 0.25
12,VWNV,≤ 0.25
13,RAWN,≤ 0.25
14,SGWN,≤ 0.25
15,DRYT,≤ 0.25
16,PPEY,≤ 0.25
17,ESTA,≤ 0.25
18,MLVW,≤ 0.25
19,CYSY,≤ 0.25
20,LHID,≤ 0.25
21,MPTT,≤ 0.25
22,LHYV,≤ 0.25
23,IYEG,≤ 0.25
24,ILSW,≤ 0.25
25,KRRC,≤ 0.25
26,RVGQ,≤ 0.25

row,Variant,enrichment ratio
1,YELH,3.24
2,LWNC,≤ 0.25
3,LWRF,≤ 0.25
4,PTQW,≤ 0.25
5,NFAQ,≤ 0.25
6,ALSL,10.6
7,GWTW,≤ 0.25
8,PRLP,≤ 0.25
9,MHES,≤ 0.25
10,KTVF,≤ 0.25
11,WTQC,≤ 0.25
12,TFWW,≤ 0.25
13,VANS,≤ 0.25
14,AASA,0.844
15,VMAR,≤ 0.25
16,WCRS,≤ 0.25
17,CLCK,≤ 0.25
18,NWNG,≤ 0.25
19,DRKF,≤ 0.25
20,ALFK,≤ 0.25
21,LMLS,≤ 0.25
22,FDIV,0.676
23,QLFS,≤ 0.25
24,QPAH,≤ 0.25
25,LVTL,≤ 0.25
26,LGEQ,≤ 0.25

row,Variant,enrichment ratio
1,PLDS,≤ 0.25
2,MYQE,≤ 0.25
3,RNHW,≤ 0.25
4,QDGR,≤ 0.25
5,FDQY,≤ 0.25
6,FGWV,≤ 0.25
7,MIIR,≤ 0.25
8,IIGI,≤ 0.25
9,KTIC,≤ 0.25
10,KCPK,≤ 0.25
11,GGLF,4.95
12,RMEP,≤ 0.25
13,PNIE,≤ 0.25
14,INAT,≤ 0.25
15,RDHS,≤ 0.25
16,NWNV,≤ 0.25
17,IMMD,≤ 0.25
18,IPGE,≤ 0.25
19,KQFE,≤ 0.25
20,WVCG,≤ 0.25
21,QMTK,≤ 0.25
22,RFYP,≤ 0.25
23,RCTP,≤ 0.25
